# PubChem BioAssay AID1865 (National Center for Advancing Translational Sciences (NCATS), 2009)
# Out of some 280,000 compounds screened, about 540 (0.19%) were called active. Inconclusive results, whose numbers are uncertain, are shown with a selection of clear calls. Calls come from the whole dose curve; as a rule, active = well fitted activation curve with a large enough effect; inconclusive = small, poorly fitted or top-dose-only effect; inactive = flat fitted curve, though single readings scatter. A potency beside an inconclusive call is a rough fit, not a confirmed value.
# Assay: Quantitative High-Throughput Screen for Regulators of Epigenetic Control; note: nearly all actives have a fitted effect of over 60% in size
# Conditions: murine LDR cells, GFP reporter derepression, 30 h; series mostly up to 53.9 µM
# How it was run: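 In this reporter-derepression format, murine cells bearing a silenced integrated CMV-GFP locus incubate with test compound (30 h, 37 C), then are washed and imaged; fluorescent objects of 20–120 um count as induced cells.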
# Potency is the fitted concentration of half-maximal effect; tags give direction and shape of the fitted curve.
row,Structure (SMILES),Potency
1,Cn1nnnc1Sc1ncnc2scc(-c3ccc(F)cc3)c12,inactive
2,CN(C)CC(C(=O)c1ccccc1)c1ccccc1 (stereo not given),"inconclusive: 3.55 µM [activator, single point]"
3,COC(=O)c1cc(=O)n(Cc2cccs2)c(=Nc2ccccc2)s1,active: 17.8 µM
4,CCOc1ccc(NC(=O)C2CCCN(S(=O)(=O)c3cccc4nonc34)C2)cc1 (stereo not given),"inconclusive: 35.5 µM [activator, single point]"
5,COc1cccc(C(=O)Nc2cccc(C(=O)OCc3cc(=O)n4nc(C5CC5)sc4n3)c2)c1,"inconclusive: 35.5 µM [activator, single point]"
6,COc1ccc(-c2ccc(-c3noc(-c4ccco4)n3)c(OC)n2)cc1,"inconclusive: 35.5 µM [activator, single point]"
7,COc1cc(C(CC(=O)NCc2ccc(F)cc2)N2Cc3ccccc3C2=O)cc(OC)c1OC (stereo not given),inactive
8,Nc1nnc(CC(=O)N/N=C/c2cc([N+](=O)[O-])cc(Br)c2O)s1,inactive
9,CCOC(=O)C1CCN(C(=O)C(C)N(c2ccc(Oc3ccccc3)cc2)S(C)(=O)=O)CC1 (stereo not given),inactive
10,Cc1cc(C)c(NC(=O)C(C)n2nc(-c3ccc(C)c(C)c3)ccc2=O)c(C)c1 (stereo not given),inactive
11,Cc1ccc(Cl)cc1NC(=O)C(C)n1nnc2sc(-c3ccccc3)cc2c1=O (stereo not given),"inconclusive: 25.1 µM [activator, single point]"
12,COC(=O)c1ccccc1NC(=O)Cc1nc(-c2ccccc2)sc1-c1ccc(C)cc1,"inconclusive: 35.5 µM [activator, single point]"
13,CC1=CN2C(=N)/C(=C/c3ccc(Sc4ccc(Cl)cc4)o3)C(=O)N=C2S1,"inconclusive: 31.6 µM [activator, single point]"
14,NC(=S)N=Nc1c(O)n(CCCl)c2ccccc12,"inconclusive: 25.1 µM [activator, single point]"
15,COc1cc(C2C(=O)N(C3CCCCC3)CC(=O)N2Cc2ccc(C)cc2)ccc1OC(C)C (stereo not given),"inconclusive: 3.55 µM [activator, single point]"
16,O=[N+]([O-])c1ccc(/C=N/NC2=NS(=O)(=O)c3ccccc32)cc1,inactive
17,O=C(NCc1ccco1)c1cc2c(s1)CCCCC2,"inconclusive: 35.5 µM [activator, single point]"
18,COc1ccc(N2CCN(C(=O)c3ccc(N(C)S(=O)(=O)c4ccc(OC)cc4)cc3)CC2)cc1,inactive
19,CC1=NN(C(=O)CSCc2ccccc2)C(O)(c2ccc(F)cc2)C1 (stereo not given),inactive
20,O=C(Nc1nc(-c2ccncc2)cs1)c1ccc(S(=O)(=O)N2CCOCC2)cc1,"inconclusive: 35.5 µM [activator, single point]"
21,O=C(CCN1CCOCC1)c1ccc(Br)cc1,"inconclusive: 22.4 µM [activator, single point]"
22,COc1cccc(-c2nn(C)c3sc(C(=O)N4CCN(c5cccc(C)c5)C(C)C4)cc23)c1 (stereo not given),inactive
23,CN(C)c1ccc(NS(=O)(=O)c2cc(Cl)ccc2Cl)cc1,inactive

row,Structure (SMILES),Potency
1,CN1CCN(CCCN2c3ccccc3Sc3ccc(C(F)(F)F)cc32)CC1,inactive
2,Cn1c(SCC(=O)NCc2ccc3c(c2)OCO3)nc2scc(-c3cccs3)c2c1=O,"inconclusive: 35.5 µM [activator, single point]"
3,CCOC(=O)/C=c1\s/c(=C\c2ccc(C(=O)OC)cc2)c(=O)n1CC(=O)Nc1ccccc1,"inconclusive: 11.2 µM [activator, partial curve]"
4,Cc1[nH]c2ccccc2c1/C=N/NC(=O)c1cc(-c2cccs2)[nH]n1,inactive
5,O=C(Nc1ccccc1C(=O)NC(Cc1ccccc1)C(=O)NC1CCCCC1)c1ccccc1 (stereo not given),"inconclusive: 35.5 µM [activator, single point]"
6,Cc1noc(/C=C/Nc2ccc(F)cc2F)c1[N+](=O)[O-],"inconclusive: 25.1 µM [activator, single point]"
7,C=C1C(=O)C=C2CN(C(=O)c3ccccc3)[C@@](Cc3ccc(OC)cc3)(C(=O)OC)[C@@H]12,"inconclusive: 35.5 µM [activator, single point]"
8,Cc1ccc(-c2nc3sc(C#N)c(N)n3c(=O)c2C#N)cc1,"inconclusive: 35.5 µM [activator, single point]"
9,CCCCC(=O)Nc1ccc(C(=O)OCc2cc(=O)n3nc(C4CC4)sc3n2)cc1,"inconclusive: 15.8 µM [activator, single point]"
10,CN(C)Cc1ccccc1-c1nccc(NCc2cccs2)n1,inactive
11,CC(C(=O)Nc1ccccc1C(F)(F)F)n1nc(-c2ccccc2)c2c(c1=O)CCCC2 (stereo not given),inactive
12,O=C1C(C=NCc2ccccn2)=C(O)c2ccccc21,inactive
13,Cc1cc(C)c2nc(NC(=O)[C@@H](NC(=O)c3cccc(S(=O)(=O)N4CCOCC4)c3)C(C)C)sc2c1,"inconclusive: 28.2 µM [activator, single point]"
14,Cc1ccc(N2C(=O)CC(Sc3ccccc3C(=O)O)C2=O)cc1 (stereo not given),inactive
15,CC(NC(=O)Cn1c(-c2cccs2)cc2cc(F)ccc21)c1ccccc1 (stereo not given),"inconclusive: 15.8 µM [activator, single point]"
16,Fc1ccc(F)c(C2=NNC(=NCC3CCCO3)SC2)c1 (stereo not given),"inconclusive: 28.2 µM [activator, single point]"
17,COc1ccc(-c2cc(C(=O)NCCc3ccccc3)c3cc(C(C)C)ccc3n2)cc1,inactive
18,COc1ccccc1NC(=O)/C(C#N)=C/C=C/c1ccco1,"inconclusive: 17.8 µM [activator, single point]"
19,Cc1ccc2c(=O)c(C(=O)c3ccccc3)cn(CC(=O)Nc3ccccc3)c2n1,"inconclusive: 22.4 µM [activator, single point]"
20,Cc1ccc(Cl)cc1NC(=O)CN(C)S(=O)(=O)c1ccc2c(c1)n(C)c(=O)c(=O)n2C,"inconclusive: 35.5 µM [activator, single point]"
21,COCC(C)N=C1NN=C(c2ccc(NC(C)=O)cc2)CS1 (stereo not given),"inconclusive: 17.8 µM [activator, single point]"
22,O=c1c2sccc2n(Cc2ccc(F)cc2)c(=O)n1-c1ccc(F)cc1,"inconclusive: 35.5 µM [activator, single point]"
